We go through two proteins from doi:10.1101/2021.02.18.431813 (bioRxiv, 2021).

The series concerns the molecule itself. As to the kind of experiment: PIE-FCCS.

B1: neuropilin-1 (receptor)
chain: not shown
Regarding B1, the “median fraction correlated (fc)” value amounted to 0.14.

B2: Plexin A4 (receptor)
chain: not shown
Regarding B2, the “median fraction correlated (fc)” value is 0.14 and the “stoichiometry N” value is 2.
